Results: the RNAGym collection of RNA variant scans (doi:10.7554/elife.90254)
The source gives no read counts; variants with many changes may rest on few reads.

B1: LINE1-full (parent)
chain: UACGUAGGUGGUUUUCCCCUGAUAGUGCUAAGGGGGCCUGGAAGUUUGGACUGGGCAGAGCUCAACACAGCGUGGCAAAGUGGCUGUGGCUAGACUGCCUCUCUGGAUUCCUCGUCACUCAGCAGGGCAUCUCUGAGAGAAAUGCC

Variants of: B1
Experiment: self-cleavage, relative activity (ratio to wild type); higher = more cleavage; in vitro, sequencing; the parent is a self-cleaving ribozyme

Row | Variant | self-cleavage
1 | UACGUAGGUGGUCUUCCCCUGAUAGUGCUAAGGGGGCCUGGAAGUUUGGACUGGGCAGAGCUCAACACAGCGCGGCAAAGUGGCUGUGGCUAGACUGCCUCUCUGGAUUCCUCGUCACUCAGCAGGGCAUCUCUGAGUGAAAUGCC | 1.67
2 | UACGUAGGUGGUCUUCCCCUGAUAGUGCUAAGGGGGCCUGGAAGUUUGGACUGGGCAGAGCUCAACACAGCGUGGCAAAGUGGCCGUGGCUAGACUGCCUCUCUGGAUUCUUCGUCACUCAGCAGGGCAUCUCUGAGAGAAAUGCC | 0.21
3 | UACGUAGGUGGUCUUCCCCUGAUAGUGCUAAGGGGGCCUGGAAGUUUGGACUGGGCAGAGCUCAACACAGCGUGGCAAAGCGGCUGUGGCUAGACUGCCUCUCUGGAUUCCUCGUCACCCAGCAGGGCAUCUCUGAGAGAAAUGCC | 0.97
4 | UACGUAGGUGGUCUUCCCCUGAUAGUGCUAAGGGGGCCUGGAAGUUUGGACUGGGCAGAGCUCAACACAGCGUGGCAAAGUGGCAGUGGCUAGACUGCCUCUCUGGAUUCCCCGUCACUCAGCAGGGCAUCUCUGAGAGAAAUGCC | 0.08
5 | UACGUAGGUGGUCUUCCCCUGAUAGUGCUAAGGGGGCCUGGAAGUUUGGACAGGGCAGAGCUCAACACAGCGUGGCAAAGUGGCUGUGGCUAGACUGCCUCUCUGGAUCCCUCGUCACUCAGCAGGGCAUCUCUGAGAGAAAUGCC | 0.97
6 | UACGUAGGUGGUCUUCCCCUGAUAGUGCUAAGGGGGCCUGGAAGUUUGGACCGGGCAGGGGUCAACACAGCGUGGCUAAGUGGCUGUGGCUAGACUGCCUCUCUGGAUUCCUCGUCACUCAGCAGGGCAUCUCUGGGAGAAAAGCC | 0
7 | UACGUAGGUGGUCUUCCCCUGAUAGUGCUAAGGGGGCCUGGAAGUUUGGACUGGGCAGAGCUCAACACAGCGCGGCAAAGUGGCUGUGGCUAGACUGCCUCUCUGGAUUCCUCGUCACUCAGCAGGGCUUCUCUGAGAGAAAUGCC | 1.08
8 | UACGUAGGUGGUCUUCCCCUGAUAGUGCUAAGGGGGCCUGGAAGUUUGGACUGGGCAGAGCUCAACACAGCGCGGCUAAGUGGCUGUGGCUAGACUGCCUCUCUGGAUUCCUCGUCACUCAGCAGGGCAUCUCUGAGAGAAAUGCC | 1.28
9 | UACGUAGGUGGUCUUCCCCUGAUAGUGCUAAGGGGGCCUGGAAGUUUGGACUGGGCAGAGCUCAACACAGCGAGGCACAGUGGCUGUGGCUAGACUGCCUCUCUGGAUUCCUCGUCACUCAGCAGGGCAUCUCUGAGAGAAAUGCC | 2.13
10 | UACGUAGGUGGUCUUCCCCUGAUAGUGCUAAGGGGGCCUGGAAGUUUGGACUGGGCAGAGCACAACACAGCGUGGCAAAGUGGCUGUGGCUAGGCUGCCUCUCUGGAUUCCUCGUCACUCAGCAGGGGAUCUCUGAGAGAAAUGCC | 0.14
11 | UACGUAGGUGGUCUUCCCCUGAUAGUGCUAAGGGGGCCUGGAAGUUUGGACUGGGCAGAGCUCAACACAGCGAGGCAAAGUGGCUGUGGCUAGACUGCCUCUCUGGAUUCCUCGUCGCUCAGCAGGGCAUCUCUGAGAGAGAUGCC | 1.59
12 | UACGUAGGUGGUCUUCCCCUGAUAGUGCUAAGGGGGCCUGGAAGUUUGGACUGGGCAGAGCACAACACAGCGCGGCAAAGUGGCUGUGGCUAGACUGCCUCUCUGGAUUCCCCGUCACUCAGCAGGGCAUCUCUGAGGGAAAUGCC | 0.15
13 | UACGUAGGUGGUCUUCCCCUGAUAGUGCUAAGGGGGCCUGGAAGUUUGGACCGGGCAGAGCUCAACACAGCGUGGCAAAGUGGCUGUGGCCAGACUGCCUCUCUGGAUUCCUCGUCACUCAGCAGGGCAUCUCCGAGAGAAAUGCC | 0.77
14 | UACGUAGGUGGUCUUCCCCUGAUAGUGCUAAGGGGGCCUGGAAGUUUGGACUGGGCAGAGCUCAACACAGCGAGGCAAAGUGGCUGUGGCCAGACUGCCUCUCUGGAUUCCUCGUCACUCAGCAGGGCAUCUCUGAGAGAAAUGCC | 0.21
15 | UACGUAGGUGGUCUUCCCCUGAUAGUGCUAAGGGGGCCUGGAAGUUUGGACUGGGCAGAGCUCAACACAGCGUGGCAAAGUGGCUGCGGCUAGACUGCCUCUCUGGAUACCUCGUCACUCAGCAGGGCAUCUCUGAGAGAAACGCC | 0.22
16 | UACGUAGGUGGUCUUCCCCUGAUAGUGCUAAGGGGGCCUGGAAGUUUGGACUGGGCAGAGCUCAACACAGCGUGGCAAAGUGGCCGUGGCUAGACUGCCUCUCUGGGUUCCUCGUCACUCAGCAGGGCACCUCUGAGAGAAAUGCC | 0.2
17 | UACGUAGGUGGUCUUCCCCUGAUAGUGCUAAGGGGGCCUGGAAGUUUGGACAGGGCAGAGCUCAACGCAGCGUGGCAAAGUGGCUGUGGCUAGACUGCCUCUCGGGAUUCCUCGUCACUCAGCAGGGCAUCUCUGAGAGAAACGCC | 0
18 | UACGUAGGUGGUCUUCCCCUGAUAGUGCUAAGGGGGCCUGGAAGUUUGGACUGGGCAGAGCUCAACACAGCGUGGCAAAGCGGCUGUGGCUAGACUGCCUCUCUGGAUUCCCCGUCACUCAGCAGGGCAUCUCUGAGAGAAAUGCC | 0.5
19 | UACGUAGGUGGUCUUCCCCUGAUAGUGCUAAGGGGGCCUGGAAGUUUGGACUGGGCAGAGCUCAACACAGCGUGGCAAAGCGGCUGUGGCUAGACUGCCUCUCUGGAUUCCUCGUCACUCAGCGGGGCAUCUCUGAGAGAAAUGCC | 0.32
20 | UACGUAGGUGGUCUUCCCCUGAUAGUGCUAAGGGGGCCUGGAAGUUAGGACUGGGCAGAGCUCAACACAGCGUGGCAAAGUGGCUGUGGCAAGACUGCCUCUCUGGAUUCCUCGUCCCUCAGCAGGGCAUCUCUAAGAGAAAUGCC | 0.85

Row | Variant | self-cleavage
21 | UACGUAGGUGGUCUUCCCCUGAUAGUGCUAAGGGGGCCUGGAAGUUUGGACUGGGCAGAGCCCAACACAGCGUGGCAAAGUGGCUGUGGCUGGACUGCCUCUCUGGAUUCCUCGUCACUCAGCAGGGCAUCUCUGAGAGAAAUGCC | 0
22 | UACGUAGGUGGUCUUCCCCUGAUAGUGCUAAGGGGGCCUGGAAGUUUGGACUGGGCAGAGCUCAACACAGCGAGGCAAAGUGGCUGUGGCUAGACUGCCUCUCUGGAUUCCUCGACACUCAGCAGGGCAUCUCUGAGAGAAAUGCC | 1.22
23 | UACGUAGGUGGUCUUCCCCUGAUAGUGCUAAGGGGGCCUGGAAGUUUGGACUGGGCAGAGCCCAACACAGCGUGGCAAAGUGGCUGUGGCCAGACUGCCUCUCUGGAUUCCUCGCCACUCAGCAGGGCAUCUCUGAGAGAAAUGCC | 1.23
24 | UACGUAGGUGGUCUUCCCCUGAUAGUGCUAAGGGGGCCUGGAAGUUUGGACUGGGCAGAGCCCAACACAGCGUGGCAAAGUAGCUGUGGCUAGACUGCCUCUCUGGGUUCCUCGUCACUCAGCAGGGCAUCUCUGAGAGAAAUGCC | 0
25 | UACGUAGGUGGUCUUCCCCUGAUAGUGCUAAGGGGGCCUGGAAGUUUGGACUGGGCAGAGCACAACACAGCGUGGCGAAGUGGCUGUGGCUAGACAGCCUCACUGGAUUCCUCGUCACUCAGCAGGGCAUCUUUGAGAGAAAUGCC | 0
26 | UACGUAGGUGGUCUUCCCCUGAUAGUGCUAAGGGGGCCUGGAAGUUUGGACUGGGCAGAGCCCAACACAGCGUGGCUAAGUGGCUGUGGCUAGACUGCCUCUCUGGAUUCCUCGUCACUCAGCAGGGCAACUCUGAGAGAAAUGCC | 0.4
27 | UACGUAGGUGGUCUUCCCCUGAUAGUGCUAAGGGGGCCUGGAAGUUCGGAUUGGGCAGAGCUCAACACAGCGUGGCAAAGUGGCUGUGGCUAGACUGCCUCCCUGGAUUCCUCGUCACUCAGCAGGGCAUCUCUGAGAGAAAUGCC | 2.36
28 | UACGUAGGUGGUCUUCCCCUGAUAGUGCUAAGGGGGCCUGGAAGUUUGGACUGGGCAGAGCCCAACACAGCGUGGCAAAGUGGCUGUGGCUAGACGGCCUCUCUGGAUUCCUCGUCACUCAGCAGGGCAUCUCUGAGAGAAGUGCC | 0.4
29 | UACGUAGGUGGUCUUCCCCUGAUAGUGCUAAGGGGGCCUGGAAGUUUGGACUGGGCAGAGCUCAACACAGCGCGGCAAAGUGGCUGUGGCUAGGCUGCCUCUCUGGAUUCCUCGUCACUCAGCAGGGCAUCUCUGAGAGAAAUGCC | 0.48
30 | UACGUAGGUGGUCUUCCCCUGAUAGUGCUAAGGGGGCCUGGAAGUUUGGACUGGGCAGAGCUCAACACAGCGUGGCAAAGUGGCUGCGGCUAGACUGCCUCUCUGGACUCCUCGUCACUCAGCAGGGCAUCUCUGAGAGAAAUGCC | 0.86
31 | UACGUAGGUGGUCUUCCCCUGAUAGUGCUAAGGGGGCCUGGAAGUUUGGACUGGGCAGAGCUCAACACAGCGUGGCAAAGUGGCCGUGGCUAGACUGCCUCUCUGGAUUCCUCGUCACUCAGCAGGGCAUCUCUGGGGGAAAUGCC | 0
32 | UACGUAGGUGGUCUUCCCCUGAUAGUGCUAAGGGGGCCUGGAAGUUCGGACUGGGCAGAGCUCAACACAGCGUGGCAAAGUGGCUGUGGCUAGACUGCCUCUCUGGAUUCCUCGUCACUCAGCAGGGCACCUCUGAGAGAAAUGCC | 1.46
33 | UACGUAGGUGGUCUUCCCCUGAUAGUGCUAAGGGGGCCUGGAAGUUUGGACAGGGCAGAGCUCAACACAGCGUGGCAAAGUGGCUGUGGCUAGGCUGCCUCUCUGGAUUCCUCGUCACUCAGCAGGGCAUCUCUGAGAGAAACGCC | 0.63
34 | UACGUAGGUGGUCUUCCCCUGAUAGUGCUAAGGGGGCCUGGAAGUUUGGACUGGGCAGAGCUCAACACAGCGCGGCAAAGUGGCUGUGGCUAGACUGCCUCUCUGGAUUCCUCGUCACUCAGCAGGGCAUCUCUGAGAGAAACGCC | 0.5
35 | UACGUAGGUGGUCUUCCCCUGAUAGUGCUAAGGGGGCCUGGAAGUUUGGACUGGGCAGAGCCCAACACAGCGUGGCAAAGUGGCUGUGGCUAGACUGCCUCUCUGGAUUCCUCGUCACUCAGCAGGGCAUCACUGAGAGAAAUGCC | 0
36 | UACGUAGGUGGUCUUCCCCUGAUAGUGCUAAGGGGGCCUGGAAGUUUGGACUGGGCAGAGCUCAACACAGCGUGGCAAAGUGGCUGCGGCUAGACUGCCUCUCAGGAUUCCUCGUCACCCAGCAGGGCAUCUCUGAGGGUAAUGCC | 0
37 | UACGUAGGUGGUCUUCCCCUGAUAGUGCUAAGGGGGCCUGGAAGUUAGGACUGGGCAGAGCUCAACACAGCGCGGCAAAGUGGCUGUGGCUAGACUGCCUCUCUGGAUUCCUCGUCACUCAGCAGGGCAUCUCUGAGAGAAAUGCC | 1.45
38 | UACGUAGGUGGUCUUCCCCUGAUAGUGCUAAGGGGGCCUGGAAGUUCGGACUGGGCAGAGCUCAACACAGCGUGGCAAAGUGGCUGUGGCUAGACUGCCUCUCUGGAUUCCUCGUCACUCAGCAGGGCGUCUCUGAGAGAAAUGCC | 2.19
39 | UACGUAGGUGGUCUUCCCCUGAUAGUGCUAAGGGGGCCUGGAAGUUUGGACUGGGCAGAGCUCAACACAGCGGGGCAAAGUGGCUGUGGCUAGACUGCCUCUCUGGAUUCCCCGUCACUCAGCAGGGCAUCUCUGAGAGAAAUGCC | 0.19
